Measured values reported in the supplement of paper PMC12217912.
Some of the results follow. The full chains were built here from the parent and the listed change. Inactive controls read about 0.05.

B1: TEV protease; numbered along this chain (parent)
chain: MGESLFKGPRDYNPISSSICHLTNESDGHTTSLYGIGFGPFIITNKHLFRRNNGTLVVQSLHGVFKVKDTTTLQQHLVDGRDMIIIRMPKDFPPFPQKLKFREPQREERICLVTTNFQTKSMSSMVSDTSCTFPSGDGIFWKHWIQTKDGQCGSPLVSTRDGFIVGIHSASNFTNTNNYFTSVPKNFMELLTNQEAQQWVSGWRLNADSVLWGGHKVFMVKPEEPFQPVKEATQL

Variants of: B1
Experiment: raw area under fraction-flipped curve 0-4 h after induction (AUC4h, not background-subtracted), DNA-recorder readout of cleavage of the substrate (dimensionless); higher = more cleavage of the substrate by the protease variant
Conditions: temperature: 34 °C; time window: 0-4 h after rhamnose induction
Procedure: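 In vivo DNA recorder in E. coli TOP10(DE3) ΔrhaA at 34 °C. Each TEVp single-site mutant (parent TEVp 0) is paired with a single-site variant of the 7-mer TEVs (canonical ENLYFQ|S). The substrate sits between flexible linkers in a Bxb1-sfGFP-TEVs-SsrA fusion, so cleavage stabilises Bxb1 and speeds flipping of a recombination array, read by NGS. The value is the raw area under the fraction-flipped curve over 0-4 h after rhamnose induction (AUC4h), with ≥20 reads per time point. It is not background-subtracted; inactive controls average about 0.047.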
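Also: Bxb1 expression induced with 0.2% (w/v) L-rhamnose at OD600 near 0.5, cultures sampled hourly, flipped fraction per protease–substrate barcode pair counted by paired-end Illumina sequencing.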

Variant | area with substrate ENLYFQA | area with substrate ENLYFQC | area with substrate ENLYFQD | area with substrate ENLYFQE | area with substrate ENLYFQG | area with substrate ENLYFQH | area with substrate ENLYFQI | area with substrate ENLYFQK | area with substrate ENLYFQL | area with substrate ENLYFQM | area with substrate ENLYFQP | area with substrate ENLYFQR | area with substrate ENLYFQS | area with substrate ENLYFQT | area with substrate ENLYFQW | area with substrate ENLYFQF | area with substrate ENLYFQN | area with substrate ENLYFQQ | area with substrate ENLYFQV | area with substrate ENLYFQY
MGESLFKGPRDYNPISSSICHLTNESDGHTTSLYGIGFGPFIITNKHLFRRNNGTLVVQSLHGVFKVKDTTTLQQHLVDGRDMIIIRMPKDFPPFPQKLKFREPQREERICLVTTNFQTKSMSSMVSDTSCTFPSGDGIFWKHWIQTKDGQCGSPLVSTRDGFIVGIHSASNFTNTNNYFTSVPKNFMELLTNQEAQQWVSGWRLNADSVLWGGEKVFMVKPEEPFQPVKEATQL [H215E] | 0.0608 | 0.072 | 0.0716 | 0.0669 | 0.0631 | 0.0672 | 0.061 | 0.05 | 0.0577 | 0.0586 | 0.0582 | 0.0559 | 0.0674 | 0.0497 | 0.0385 | – | – | – | – | –
MGESLFKGPRDYNPISSSICHLTNESDGHTTSLYGIGFGPFIITNKHLFRRNNGTLVVQSLHGVFKVKDTTTLQQHLVDGRDMIIIRMPKDFPPFPQKLKFREPQREERICLVTTNFQTKSMSSMVSDTSCTFPSGDGIFWKHWIQTKDGQCGSPLVSTRDGFIVGIHSASNFTNTNNYFTSVPKNFMELLTNQEHQQWVSGWRLNADSVLWGGHKVFMVKPEEPFQPVKEATQL [A196H] | 0.115 | 0.12 | 0.0794 | – | 0.143 | 0.0798 | 0.0709 | 0.0563 | 0.0701 | 0.0916 | 0.0525 | – | 0.108 | 0.0626 | 0.0493 | 0.0713 | 0.0818 | 0.0809 | 0.0495 | –
MGESLFKGPRDYNPISSSICHLTNESDGHTTSLYGIGFGPFIITNKHLFRRNNGTLVVQSLHGVFKVKDTTTLQQHLVDGRDMIIIRMPKDFPPFPQKLKFREPQREERICLVTTNFQTKSMSSMVSDTSCTFPSGDGIFWKHWIQTKDGQCGSPLVSTRDGFIVGIHSASNFTNTNNYFTSVPKNFMELLTNQEIQQWVSGWRLNADSVLWGGHKVFMVKPEEPFQPVKEATQL [A196I] | 0.109 | 0.118 | – | – | 0.114 | 0.043 | 0.0504 | 0.0583 | 0.0781 | 0.0824 | 0.0585 | 0.0567 | 0.108 | 0.0633 | 0.0758 | 0.0697 | 0.0759 | – | 0.0627 | 0.069
MGESLFKGPRDYNPISSSICHLTNESDGHTTSLYGIGFGPFIITNKHLFRRNNGTLVVQSLHGVFKVKDTTTLQQHLVDGRDMIIIRMPKDFPPFPQKLKFREPQREERICLVTTNFQTKSMSSMVSDTSCTFPSGDGIFWKHWIQTKDGQCGSPLVSTRDGFIVGIHSASNFTNTNNYFTSVPKNFMELLTNQEAQQWVSGWRLNADSVLWGGHKVLMVKPEEPFQPVKEATQL [F218L] | 0.0868 | 0.0914 | – | – | 0.0819 | – | 0.0439 | 0.0532 | 0.0578 | 0.0679 | – | 0.054 | 0.102 | 0.0636 | 0.0622 | – | 0.0723 | 0.0712 | – | 0.0511
MGESLFKGPRDYNPISSSICHLTNESDGHTTSLYGIGFGPFIITNKHLFRRNNGTLVVQSLHGVFKVKDTTTLQQHLVDGRDMIIIRMPKDFPPFPQKLKFREPQREERICLVTTNFQTKSMSSMVSDTSCTFPSGDGIFWKHWIQTKDGQCGSPLVSTRDGFIVGIHSASNFTNTNNYFTSVPKNFMELLTNQEAQQWVSGWRLNYDSVLWGGHKVFMVKPEEPFQPVKEATQL [A207Y] | 0.0801 | – | – | – | – | – | – | – | 0.076 | 0.106 | – | 0.0504 | 0.0897 | – | – | – | 0.0816 | – | 0.0657 | –
MGESLFKGPRDYNPISSSICHLTNESDGHTTSLYGIGFGPFIITNKHLFRRNNGTLVVQSLHGVFKVKDTTTLQQHLVDGRDMIIIRMPKDFPPFPQKLKFREPQREERICLVTTNFQTKSMSSMVSDTSCTFPSGDGIFWKHWIQTKDGQCGSPLVSTRDGFIVGIHSASNFTNTNNYFTSVPKNFMELLTNQEAQQWVSGWQLNADSVLWGGHKVFMVKPEEPFQPVKEATQL [R204Q] | 0.101 | 0.127 | 0.0739 | – | 0.119 | 0.108 | 0.0603 | 0.0859 | 0.0648 | 0.0932 | 0.0583 | 0.0549 | 0.118 | 0.0795 | 0.0669 | 0.087 | 0.0835 | 0.059 | 0.0582 | 0.0907
MGESLFKGPRDYNPISSSICHLTNESDGHTTSLYGIGFGPFIITNKHLFRRNNGTLVVQSLHGVFKVKDTTTLQQHLVDGRDMIIIRMPKDFPPFPQKLKFREPQREERICLVTTNFQTKSMSSMVSDTSCTFPSGDGIFWKHWIQTKDGQCGSPLVSTRDGFIVGIHSASNFTNTNNYFTSVPKNFMELLTNQEAQQWVSGWRLNADSVCWGGHKVFMVKPEEPFQPVKEATQL [L211C] | 0.0904 | 0.0985 | 0.059 | 0.0759 | 0.0951 | 0.112 | – | 0.0634 | 0.0824 | 0.102 | – | – | 0.109 | 0.0602 | 0.0611 | – | – | – | – | 0.0877
MGESLFKGPRDYNPISSSICHLTNESDGHTTSLYGIGFGPFIITNKHLFRRNNGTLVVQSLHGVFKVKDTTTLQQHLVDGRDMIIIRMPKDFPPFPQKLKFREPQREERICLVTTNFQTKSMSSMVSDTSCTFPSGDGIFWKHWIQTKDGQCGSPLVSTRDGFIVGIHSASNFTNTNNYFTSVPKNFMELLTNQEAQQWVSGWRLNADSVVWGGHKVFMVKPEEPFQPVKEATQL [L211V] | 0.0921 | 0.108 | – | – | 0.0852 | – | 0.0549 | 0.0709 | – | 0.0785 | – | – | 0.105 | 0.0778 | 0.0651 | 0.113 | 0.0892 | – | 0.0597 | 0.0631
